According to publication PMC4336329 (PLoS ONE, 2015):
About 2,200 (0.71%) of roughly 310,000 compounds showed an effect of 50% or more. Effects have a minus sign here. The list shows a part of the results.

biological target: human ether-à-go-go-related gene (hERG) potassium channel (human, UniProt Q12809); experiment: primary screen, population patch clamp on CHO cells stably expressing hERG
Sequence (Q12809 whole entry, looked up): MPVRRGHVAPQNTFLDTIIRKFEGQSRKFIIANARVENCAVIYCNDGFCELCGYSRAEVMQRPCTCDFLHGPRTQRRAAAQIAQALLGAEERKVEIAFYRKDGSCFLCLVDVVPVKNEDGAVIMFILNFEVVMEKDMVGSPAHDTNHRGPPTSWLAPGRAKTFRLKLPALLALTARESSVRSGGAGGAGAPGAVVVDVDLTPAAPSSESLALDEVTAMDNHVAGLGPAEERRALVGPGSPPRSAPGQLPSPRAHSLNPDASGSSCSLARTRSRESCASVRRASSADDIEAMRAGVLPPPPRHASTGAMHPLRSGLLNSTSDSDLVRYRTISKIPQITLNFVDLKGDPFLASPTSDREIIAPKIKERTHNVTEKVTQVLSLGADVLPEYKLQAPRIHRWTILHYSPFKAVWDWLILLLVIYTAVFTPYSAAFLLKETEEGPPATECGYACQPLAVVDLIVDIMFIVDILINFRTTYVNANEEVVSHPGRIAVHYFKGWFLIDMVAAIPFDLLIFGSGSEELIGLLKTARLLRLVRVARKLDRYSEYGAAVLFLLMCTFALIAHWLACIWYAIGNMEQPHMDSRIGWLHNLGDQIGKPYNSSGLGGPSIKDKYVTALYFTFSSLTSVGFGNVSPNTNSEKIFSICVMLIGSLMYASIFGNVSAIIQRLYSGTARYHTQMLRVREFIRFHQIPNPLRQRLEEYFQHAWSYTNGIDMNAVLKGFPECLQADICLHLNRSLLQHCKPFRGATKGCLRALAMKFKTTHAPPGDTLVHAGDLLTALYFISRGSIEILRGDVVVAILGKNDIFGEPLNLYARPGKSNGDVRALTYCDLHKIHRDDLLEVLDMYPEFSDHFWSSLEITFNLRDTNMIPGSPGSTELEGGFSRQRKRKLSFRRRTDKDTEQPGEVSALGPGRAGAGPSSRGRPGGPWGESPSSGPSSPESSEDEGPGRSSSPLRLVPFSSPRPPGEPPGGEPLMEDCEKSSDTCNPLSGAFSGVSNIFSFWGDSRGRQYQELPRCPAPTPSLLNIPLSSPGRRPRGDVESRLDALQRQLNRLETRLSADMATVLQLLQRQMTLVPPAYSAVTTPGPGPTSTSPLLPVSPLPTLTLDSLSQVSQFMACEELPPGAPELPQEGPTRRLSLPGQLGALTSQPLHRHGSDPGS

| SMILES | hERG current change (%, negative = inhibition) at 1uM |
| --- | --- |
| NC(=O)c1ccccc1NC(=O)COc1ccc2c(c1)OCO2 | 12.2% |
| CCn1c(=O)c(C(=O)CN2CCN(S(=O)(=O)c3cc(C)ccc3C)CC2)c(N)n(Cc2ccccc2)c1=O | 12.1% |
| O=C(NCc1cccnc1)C(=O)Nc1nc(C23CC4CC(CC(C4)C2)C3)cs1 | 14% |
| NC(=O)c1cc(-c2cccnc2)nc2ccc(Br)cc12 | 7.78% |
| C=CCOC(=O)/C(=C\c1ccc(OC)cc1)NC(=O)c1ccco1 | 10.2% |
| COCCn1c(SCc2ccc(OC)c(F)c2)nc2ccccc2c1=O | 13.6% |
| COc1ccc(NC(=O)CNS(=O)(=O)c2ccc(Cl)cc2)cc1OC | 2.3% |
| C=CCc1cccc(CNc2cnc3ccccc3c2)c1O | 5.06% |
| CCCOc1cccc(C(=O)NCCCNC(=O)c2cccnc2)c1 | -8.74% |
| CC(=O)NCc1nc2ccccc2n1Cc1ccccc1C | 10.3% |
| CCc1noc(C)c1C(=O)Nc1nc2ccc(F)cc2s1 | 9.21% |
| CC(C)C(=O)N1CCC(n2nccc2NC(=O)CCOc2ccccc2)CC1 | 0.685% |
| CCCNS(=O)(=O)c1cccc(C(=O)OCc2cc(=O)oc3cc(OC)ccc23)c1 | 2.46% |
| CCNC(=S)NNC(=O)c1ccncc1 | 11.2% |
| COc1cccc(CSc2nc(N)cc(N)n2)c1 | 10.5% |
| CC1CCCCC1NC(=O)CC1Oc2ccccc2NC1=O (stereo not drawn) | -0.373% |
| O=c1ccc2ccccc2o1 | 18.3% |
| COc1ccc(C2CC(c3cccs3)=NN2C(=O)CSc2nc3ccccc3s2)cc1 (stereo not drawn) | 10.6% |
| CC(NC(=O)c1ccccc1Br)c1ccc2c(c1)CCCC2 (stereo not drawn) | -12% |
| O=C(CSc1nnc(COc2cccc3ccccc23)o1)N1CCN(C(=O)c2ccco2)CC1 | -44.8% |
| Cc1c(C(C)NC(=O)c2cc(COc3cccc4cnccc34)on2)cnn1C (stereo not drawn) | 24.7% |
| COC(=O)/C(=C\C(=O)c1ccccc1)Nc1cccc(C(F)(F)F)c1 | 6.48% |
| CC(=O)Nc1c2c(nn1-c1ccc(C)cc1)CSC2 | 14.5% |

| SMILES | hERG current change (%, negative = inhibition) at 1uM |
| --- | --- |
| CCOCCCNC(=O)C(=O)NCCCOCC | 7.7% |
| CN(C)CCNC(=S)Nc1ccccc1C(C)(C)C | 10.1% |
| Cn1c(SCc2cccc(Br)c2)nc2c1c(=O)[nH]c(=O)n2C | 14.3% |
| Cc1ccc(NC(=O)N2CCCC2C(=O)Nc2ccc(-n3cnnn3)c(C)c2)cc1 (stereo not drawn) | -1.23% |
| COc1ccc(N2CCN(C(=O)CNC(=O)c3ccc4ccccc4c3)CC2)cc1 | 9.7% |
| CC(C)c1ccc(OCC(=O)NC(=S)Nc2ccc3c4c(cccc24)CC3)cc1 | -3.41% |
| Cc1oc2cc(OC(C)C(=O)O)ccc2c(=O)c1Oc1ccccc1 (stereo not drawn) | 18.4% |
| O=C(NCC1CCCN(Cc2ccc3nonc3c2)C1)c1ccc(F)cc1 (stereo not drawn) | -13.9% |
| Cc1cc(C)c(C#N)c(SCC(=O)N(C)C2CCCCC2)n1 | -4.26% |
| CC(C)Nc1nc(NC(C)C)nc(Oc2ccc(/C=N/O)cc2)n1 | -5.96% |
| COc1ccc(CC(=O)n2c(CC#N)nc3ccccc32)cc1OC | 13.4% |
| Cc1nn(-c2ccccc2)nc1CNC(=O)c1ncoc1-c1ccccc1 | 8.91% |
| CCOC(=O)c1c(N2C(=O)CC(Sc3ccccc3C(=O)O)C2=O)sc2c1CCCC2 (stereo not drawn) | 11% |
| CCOC(=O)CNC(=S)N(CCCN1CCN(C)CC1)Cc1cccs1 | 1.64% |
| CCC(NC(=O)c1ccc2nc(Cc3ccc(OC)cc3)oc2c1)c1ccncc1 (stereo not drawn) | 4.78% |
| COc1ccc(C(=O)C2CCN(CC(=O)Nc3cc(C)cc(C)c3)CC2)cc1 | -28.1% |
| Cc1cccc[n+]1CC(=O)N1c2ccccc2Sc2ccccc21.[Cl-] | 13% |
| Nc1nc(Nc2cccc(Cl)c2)n[nH]1 | 12.7% |
| COC(=O)C(C)NS(=O)(=O)c1ccc(NC(C)=O)cc1 (stereo not drawn) | 1.66% |
| Cc1cc(Cl)ccc1NC(=O)C1CCCN1C(=O)c1cccs1 (stereo not drawn) | 10.2% |
| COC(=O)Cn1c2ccc(Cl)cc2c2nc(C)sc21 | 13.9% |
| O=C(N/N=C/c1cc2c(cc1Br)OCO2)c1ccccn1 | 16.1% |
